In PMC6919601, “Identification of Plasmodium dipeptidyl aminopeptidase allosteric inhibitors by high throughput screening” (PLoS ONE, 2019):
Out of some 110,000 compounds screened, about 230 (0.21%) showed an effect of 50% or more. Some of the results follow.

Each compound was assayed against DPAP1 (Plasmodium falciparum, UniProt Q8IIJ9) (assay: primary screen, percent inhibition; read by cleavage of a fluorogenic dipeptide substrate; higher = more effect of the substance).
Parameters: species or system P. falciparum D10 trophozoite lysates; single well
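Also: 30 min substrate incubation versus DMSO and 10 µM JCP410 controls.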

Chain of DPAP1 (Q8IIJ9 whole entry, looked up): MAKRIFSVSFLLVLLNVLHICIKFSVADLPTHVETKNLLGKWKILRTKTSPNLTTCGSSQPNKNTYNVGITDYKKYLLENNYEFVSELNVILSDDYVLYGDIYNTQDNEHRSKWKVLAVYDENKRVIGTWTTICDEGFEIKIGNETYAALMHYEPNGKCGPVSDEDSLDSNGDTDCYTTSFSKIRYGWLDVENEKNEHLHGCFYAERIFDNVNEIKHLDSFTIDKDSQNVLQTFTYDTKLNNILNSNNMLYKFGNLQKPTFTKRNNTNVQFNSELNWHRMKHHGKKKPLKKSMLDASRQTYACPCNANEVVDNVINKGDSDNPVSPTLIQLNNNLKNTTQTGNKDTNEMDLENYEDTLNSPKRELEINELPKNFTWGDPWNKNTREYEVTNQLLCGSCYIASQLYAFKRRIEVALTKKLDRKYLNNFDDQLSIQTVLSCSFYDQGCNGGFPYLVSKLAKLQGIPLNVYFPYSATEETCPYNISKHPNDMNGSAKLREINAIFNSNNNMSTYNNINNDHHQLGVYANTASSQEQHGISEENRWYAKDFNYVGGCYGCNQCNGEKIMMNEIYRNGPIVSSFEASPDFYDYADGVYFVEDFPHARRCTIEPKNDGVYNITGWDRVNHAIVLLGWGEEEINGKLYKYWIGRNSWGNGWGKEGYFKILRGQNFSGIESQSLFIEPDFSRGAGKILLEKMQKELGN

Compound | % Inhibition @ 10 uM
CCOCCCn1c(=N)c(C(=O)NCCc2ccccc2)cc2c(=O)n3ccccc3nc21 | 1.97%
COc1cc(CN2CCN(c3ccccc3)CC2)ccc1O | -2.7%
COc1ccc(N(CC(=O)NCc2ccccc2)S(C)(=O)=O)c(OC)c1 | 3.72%
Cc1cc2nc(COc3ccc(C(C)C)cc3)cc(=O)n2o1 | -5.76%
O/N=C1\c2ccccc2/C(=N/O)C1c1cccc2ccccc12 (stereo not shown) | 5.54%
COc1cccc(Cn2nnc(C(=O)O)c2C(=O)O)c1 | 4.23%
Cc1ccc(C2C(C#N)=C(N)Oc3[nH]nc(C(C)(C)C)c32)s1 (stereo not shown) | -2.2%
CCS(=O)(=O)N1CCC2(CC1)OC(=O)C(C)=C2C(=O)NCCCN1CCCC1=O | 0.706%
COCCNC(=O)CSc1nnc(-c2ccc(C)cc2)c(-c2ccc(C)cc2)n1 | -2.14%
COc1cc(CN2C[C@@H]3C[C@H](C2)c2cccc(=O)n2C3)cc(OC)c1OC | -1.85%
C=CCNC(=O)C1CC(c2cnn(CC)c2C)=NO1 (stereo not shown) | -6.68%
COc1ccc(CCNC(=O)CN2CCN(Cc3ccc(F)cc3Cl)S2(=O)=O)cc1OC | -5.13%
CCOC(=O)c1c(NC(=O)CCC(=O)O)sc2c1CCCC2=O | 2.94%
CCCN(CCO)CC1CC=CCC1 (stereo not shown) | 1.08%
CC(C)C(=O)Nc1nc2nc(-c3ccccc3)cc(O)n2n1 | 9.57%
CCOC(=O)C1=C(CC)OC(N)=C(C#N)C1c1ccc(SC)cc1 (stereo not shown) | 4.12%
CCc1nnc(NC(=O)c2ccc(S(=O)(=O)N(C)C3CCCCC3)cc2)o1 | -7.43%
O=C(NC12CC3CC(CC(C3)C1)C2)c1cncc(O)c1 | -1.15%
CN(C)CCNC(=O)CCn1c(=O)c2cccn2c2cccnc21 | 4.14%
Cc1[nH]c2ccccc2c1CCNC(=O)NC(=O)c1ccc(C(F)(F)F)cc1 | 1.93%
O=C1N/C(=C/c2cc3c(cc2Cl)OCO3)C(=O)N1c1ccc(Cl)cc1 | 0.823%
CN(CCc1ccccn1)Cc1cccc(C(F)(F)F)c1 | -0.351%
COc1ccc(/C=C/C2=NC(=C\c3cccc(OC)c3)/C(=O)O2)cc1 | 1.28%
O=C(CNS(=O)(=O)c1ccc(Br)cc1)Nc1cccc(F)c1 | 14.3%
COCCNc1cnn(C23CC4CC(CC(C4)C2C(=O)O)C3)c(=O)c1Cl (stereo not shown) | 12.7%

Compound | % Inhibition @ 10 uM
CC1CC(=O)Nc2cc([N+](=O)[O-])ccc2N1 (stereo not shown) | 2.23%
O=C(NCc1cccs1)c1cnn2c1NC(c1cccs1)CC2C(F)(F)F (stereo not shown) | -1.37%
O=C(NC1CCN(Cc2ccccc2)CC1)c1ccc(Br)cc1 | 4.55%
O=C1c2ccccc2C(O)(Cc2ccccc2)N1CC(O)c1ccccc1 (stereo not shown) | -3.71%
Nc1cc(O)nc(SCC(=O)c2ccc(O)c(O)c2)n1 | -11.3%
Cc1ccc2oc(C(=O)Nc3nnc(C(C)C)s3)cc(=O)c2c1 | 18.2%
CC1CCN(C(=O)CN(C)S(=O)(=O)c2ccc3[nH]c4c(c3c2)CCCC4)CC1 | 0.141%
CC1(C)CC(n2nc(O)c3c2NC(=O)CSC3c2ccc3c(c2)OCO3)CCO1 (stereo not shown) | 6.01%
COCCCN1C(=O)S/C(=C/c2ccc(OC)c(O)c2)C1=O | 0.709%
CC1(C)CC(=O)C2=C(C1)OC(N)=C(C#N)C2C1CC=CCC1 (stereo not shown) | 2.22%
COCCN1Cc2cccc(C(=O)NC(C)c3cccs3)c2C1=O (stereo not shown) | -2.29%
CSCC[C@H](NC(=O)OCc1ccccc1)C(=O)O | 1.97%
O=C(NC1CCCCC1)C1CCCN1S(=O)(=O)c1cccc2nsnc12 (stereo not shown) | 1.26%
O=c1c2c3c(sc2nnn1CCCOc1ccccc1)CCCC3 | 2.41%
Cc1cccc(OCC(=O)NCc2ccccc2)c1 | -2.03%
CCCSc1nsc(SCCC)c1C(=O)O | 0.51%
COc1cc(CN2CCC(C)CC2)cc(OC)c1 | -4.75%
COc1ccc(S(=O)(=O)n2cnc3cc(C)c(C)cc32)cc1 | -0.142%
Cn1c(SCC(=O)NCc2ccccc2)nc2c(c1=O)SCC2 | 0.205%
Cn1c(=O)c2c(nc(N3CCCCC3)n2CC(=O)c2ccccc2)n(C)c1=O | -0.173%
c1ccc2c(Oc3ncnc4sc5c(c34)CCCC5)cccc2c1 | -4.08%
Cc1cc(-c2ccccc2)n2nc(-c3ccc(Cl)cc3)cc2n1 | 3.16%
CCOC(=O)c1c(NC(=O)CSc2nnc(C(F)(F)F)n2N)sc2c1CCC2 | -8.85%
CN(CC(=O)Nc1nccs1)S(=O)(=O)c1cccc2nsnc12 | -3.46%
CC(=O)N(C1=C(N2CCNCC2)C(=O)c2ccccc2C1=O)c1ccc(Br)cc1 | 36.5%

Compound | % Inhibition @ 10 uM
CC(C)C[C@H](NC(=O)c1ccc(NC(=O)OCCCc2ccncc2)cc1)C(=O)NCC#N | -9.15%
Cc1ccccc1Cn1cc(NC(=O)c2cc(-c3ccc(F)cc3)on2)cn1 | 0.723%
Cc1ccc(Cn2c(CN3CCN(C)CC3)nc3c2c(=O)n(C)c(=O)n3C)cc1 | -0.499%
COc1ccc(Cl)cc1C(=O)Nc1ccc2c(c1)C(=O)N(CC(C)C)C2=O | -2.32%
CN(Cc1ccccc1)C(=O)c1ccc([N+](=O)[O-])o1 | 2.6%
Clc1cccc(CSc2nc3cccnc3[nH]2)c1 | 1.93%
Cc1nn(-c2cccc(Cl)c2)c2c1C(c1ccccc1F)C(C#N)=C(N)O2 (stereo not shown) | -2.45%
N#C/C(=C\c1ccccc1[N+](=O)[O-])c1nc(-c2ccc(Br)cc2)cs1 | 4.33%
COc1cc(Oc2ccccc2)nc(N)n1 | 5.43%
O=S(c1c(O)nc2ccccc2c1O)C1CCCCC1 (stereo not shown) | 2.32%
Cc1c(Cl)ccc(S(=O)(=O)NCCOC23CC4CC(CC(C4)C2)C3)c1Cl | 2.18%
Cn1ncc2c(NCCc3ccc(S(N)(=O)=O)cc3)ncnc21 | 2.72%
CC(NC(=O)CSc1nnnn1-c1ccccc1F)C12CC3CC(CC(C3)C1)C2 (stereo not shown) | 4.31%
COCCCn1c(=O)c2sccc2n2c(CCCC(=O)NCCc3ccc(Cl)cc3)nnc12 | -5.35%
CC(=O)c1cccc(NC2=NS(=O)(=O)c3ccccc32)c1 | -1.26%
O=C1CSCC2=C1C(=O)CC1c3ccccc3CCN21 (stereo not shown) | -2.8%
CC(=O)c1ccc(NC(=O)C2CC=CCC2C(=O)OCC2CCCO2)cc1 (stereo not shown) | -1.91%
COc1ccc(OC)c(C2C=C(c3cccc(Br)c3)Nc3ncnn32)c1 (stereo not shown) | -7.08%
Nc1ncnc2[nH]c(SCc3nc4ccccc4n3Cc3ccccc3)nc12 | -4.02%
Cc1nnc2c(N3CCC(Cc4ccccc4)CC3)nc3ccccc3n12 | -3.41%
COc1ccc(OC)c(NC(=O)c2ccccc2C(=O)O)c1 | -6.67%
O=C(Nc1ccc(Cl)cc1C(=O)N1CCCC1)c1ccco1 | 3.8%
COc1ccc(-n2c(Cc3cccn3C)nnc2SCC(=O)NCCc2ccccc2)cc1 | 1.15%
Clc1ccc(-c2nc3sc4nc5ccccc5nc4n3n2)c(Cl)c1 | 5.5%
CN(CCC#N)C(=O)c1noc2c1COc1ccccc1-2 | 1.68%

Compound | % Inhibition @ 10 uM
CC(C)(C)c1nnc(NC(=O)c2ccccc2Cl)s1 | -1.19%
COc1cccc(C(=O)COc2ccccc2N2C(=O)c3ccccc3C2=O)c1 | -0.473%
Cc1nc2nc(SCC(=O)NC(C)c3ccccc3)nn2c(C)c1Cc1ccccc1 (stereo not shown) | 2.83%
Cc1cc(/C=C2/NC(=O)N(c3ccccc3)C2=O)c(C)n1-c1ccc2c(c1)OCO2 | -5.3%
CCN1CCN(Cc2ccc(F)c(F)c2)CC1 | -6.21%
OCCN1CCN(CC(O)c2ccc(C3CCCC3)cc2)CC1 (stereo not shown) | -1.91%
O=c1n(-c2ccccc2)c(=O)n2n1C1C3C4C5C3C2C5C41 (stereo not shown) | 0.661%
COc1ccc(-c2csc(/C(C#N)=C\c3ccc(C(C)C)cc3)n2)cc1 | -1.62%
COCCN1C(=O)/C(=C/c2ccc(O)c(OC)c2)S/C1=N\c1ccccc1 | 10.3%
O=C(CSc1ccc(-c2cccs2)nn1)NC1CCCCC1 | 1.68%
Cc1ccc(-c2nnc(N3CCN(S(=O)(=O)c4ccc(F)cc4)CC3)c3ccccc23)cc1 | -0.958%
O=C(NCc1ccc2c(c1)OCO2)c1noc2c1COc1ccccc1-2 | 73.5%
c1ccc(-n2ncc3c(NCc4ccc5c(c4)OCO5)ncnc32)cc1 | -3.56%
Cc1cc(C)nc(NS(=O)(=O)c2ccc(NC(=O)c3ccc(C)c(Br)c3)cc2)n1 | -3.45%
Cc1nc(O)nc(O)c1S(=O)(=O)N1CCC(C(N)=O)(N2CCCCC2)CC1 | 2.8%
Cc1c(C(=O)NCCc2ccccc2)oc2ccc3c(c12)C=CC(C)(C)O3 | -10.9%
NS(=O)(=O)c1ccc(CCNS(=O)(=O)c2ccc(-c3cc(C(F)(F)F)no3)s2)cc1 | 2.41%
CN1CCC(N[C@H]2CCCCNC2=O)CC1 | -3.82%
Cc1ccc(Cn2cc(/C=C3/NC(=O)NC3=O)c3ccccc32)cc1 | 1.52%
CCC(=O)N(/C=C1\Sc2ccccc2C1=O)Cc1ccccc1 | 20.7%
O=C(Cn1ncn2nc(-c3cccs3)cc2c1=O)N1CCC(Cc2ccccc2)CC1 | 0.623%
Cc1nc(Cn2c(C)nc3ccccc32)cs1 | -4.58%
O=C(COc1cccc(Cl)c1)Nc1cccc(C(F)(F)F)c1 | 3.65%
COc1ccc(CCNC(=O)c2cnc(SC)nc2C)cc1OC | -1.08%
O=C(Nc1ccccc1)c1cc(S(=O)(=O)N2CCOCC2)cs1 | 5.31%
